The labels stand for the following.
B1: ENSG00000109133:stop:overlap|stop_codon|ENSG00000109133|stop_codon|NA|stop_codon (ssRNA)
RNA: GGGAGUUCUACAGUCCGACGAUCUGAGAAGACUUUGUCUCCAGAGCAUUGCCUUUAUAAGCAGAUUGGCACCAACAGUUCCAUAGUUUAACAUCUAGUUAAGCUACAAAUAUAGUAUAAGCAUUAUUAGCAGCUGGUACUUCUCAACAGAGGAUUGAGCAUCA
B2: chr19:19296988:19297344:-|CDS|ENSG00000105705|control|control|control (ssRNA)
RNA: GGGAGUUCUACAGUCCGACGAUCCUCCGCAGCCACCGUGAAGAGGAAGCGGAAGAGCCGGUGGGGGCCUGAAGAGGAUAAGGUAGAGCUCCCACCUGCUGAACUGGUGCAGAGGGACGUGGAUGCCUCUCCCUCGCCUCUGUCCAACAGAGGAUUGAGCAUCA
B3: chr1:25831912:25832087:-|three_prime_utr|ENSG00000127423|control|control|control (ssRNA)
RNA: GGGAGUUCUACAGUCCGACGAUCGACUGAGUUUGCAGAGCUGAGGGUUGUCAAUUUCCUUUUCUACUGAUAUCUUCUUCCUUUAGAGCAAACUUCCUCCUUAGGACCUCAGAGAUAAGCACAGCAGGGUCUUCCUCCUUCAAUCAACAGAGGAUUGAGCAUCA
B4: chr17:39471515:39471616:+|CDS|ENSG00000167258|unk|total|mutant (ssRNA)
RNA: GGGAGUUCUACAGUCCGACGAUCUUGCCUCCAAUACCAGCUCUUCCACAGCAACCACCUCUGCCUCCUUCUCAGCCAGCAUUCCGUCAGGUUCCUGCUUCCAGUACUUCAACUUUGCCCCCUUCUACUCACUCAAAGACAUCUCAACAGAGGAUUGAGCAUCA
B5: chr17:68278117:68278284:-|CDS|ENSG00000108932|unk|total|mutant (ssRNA)
RNA: GGGAGUUCUACAGUCCGACGAUCGCUUUGUUCCAAAGCCAAUGUGUAUACUGAAGUGCCUGAUGGAGGAUGGGGCUGGGCGGCCGCUGUUUCAUUUUUCUUCGUUGAAGUCUUCACCUACGGCAUCAUCAAGACAUUUGGUGUCAACAGAGGAUUGAGCAUCA
B6: chrX:152166439:152166540:-|3pUTR|ENSG00000011677|unk|total|mutant (ssRNA)
RNA: GGGAGUUCUACAGUCCGACGAUCCACCACAAGCAGAUUCUCCCUGCCCACCGGCUGAACAAAGCUCCUAAGGGGUGUAUCAUCCGCUGCUGGUUGCCUUUUCAUCCAUCCUUUCCCCGUCCCCUGCUUCCUUGCCAUUGCUGGCAACAGAGGAUUGAGCAUCA
B7: chr5:138934237:138934351:+|3pUTR|ENSG00000044115|msi1_unk|total|mutant (ssRNA)
RNA: GGGAGUUCUACAGUCCGACGAUCUUUCCAAGAACACCGUUUAAGUUGAUUAAAAAUGCUUUCCGAAUGCAGGAGCCUACUUCCCGCUGUAUUUUUUGUAUGCUUAAAUAAAAAUAAAAAUUCAUAACCAAAGAGAAUCCCACACAACAGAGGAUUGAGCAUCA
B8: chr4:57023444:57023561:+|CDS|ENSG00000047315|unk|FALSE|unique (ssRNA)
RNA: GGGAGUUCUACAGUCCGACGAUCGAAUUGGAGAGCACCAAUAGACGCUAUACCAAGAGAGACUGUAGCACUUUUCUCAGAACUAGCGAGACGGGCAUUGUGGAUCAGGUUAUGGUAACUCUCAAUCAGGAAGGAUAUAAAUUUCAACAGAGGAUUGAGCAUCA
B9: chr17:2060671:2060772:-|3pUTR|ENSG00000070366|unk|total|mutant (ssRNA)
RNA: GGGAGUUCUACAGUCCGACGAUCCCGUGCUCUCGGGUGGCCUCCACCUGCUCCCUCUCUCCUCACUGGCCUUUCUUUCCGUCCCGCUUCCUCUUCAGGAAAUGUCCUGACUCCCCUCAGCUCCCCCUUCACCCCUCCUUGCCCCAACAGAGGAUUGAGCAUCA
B10: chr12:85803847:85803948:-|3pUTR|ENSG00000198774|unk|FALSE|unique (ssRNA)
RNA: GGGAGUUCUACAGUCCGACGAUCCCAAACCCAUGUUCAUUCACUGAGUGAGGUAUAGUGUGGGUUACAGAGAAAAUCAGUCAUAGUGUUAUUUGUUUAUGUCCUAUCUACAAAAGUUGCAAUGAUGGAAUUUGGAACCCUUCUCAACAGAGGAUUGAGCAUCA
B11: chr2:37079119:37079331:-|CDS|ENSG00000008869|control|control|control (ssRNA)
RNA: GGGAGUUCUACAGUCCGACGAUCAGUAGUUCACCUGGACCACCUACACGAAAAUUAUUAGCUAAAAAUCUCGCAGCCCUUUAUAGCAUUGGGGAUACUUUCACAGUUUUUCAGACACUUGAUAAAUGCAAUGACAUUAUCAGACAACAGAGGAUUGAGCAUCA
B12: ENSG00000124205:stop:overlap|stop_codon|ENSG00000124205|stop_codon|NA|stop_codon (ssRNA)
RNA: GGGAGUUCUACAGUCCGACGAUCCCAACAGAGGCCUGUGUCAAAGGAGGUUGAAGUCAAGGACCAACAAAGCAAGCAGGCUUUAGACCUCCACCAUCCAAAGCUCAUGCCCGGCAGUGGACUCGCCCUCGCUCCAUCUACCUGCAACAGAGGAUUGAGCAUCA
B13: chr2:216122066:216122255:+|CDS|ENSG00000079246|unk|FALSE|unique (ssRNA)
RNA: GGGAGUUCUACAGUCCGACGAUCCCAUGGGCCUUCCUUUCCACUAAAAGGAAUUACCGAACAGCAAAAAGAAGGUCUUGAGAUAGUGAAAAUGGUGAUGAUAUCUUUAGAAGGUGAAGAUGGGUUGGAUGAAAUUUAUUCAUUCAACAGAGGAUUGAGCAUCA
B14: chr12:88493871:88493972:-|3pUTR|ENSG00000049130|msi1|FALSE|unique (ssRNA)
RNA: GGGAGUUCUACAGUCCGACGAUCAAGUAUCUUGACCAUAAAAAGUCAUUGCUGUUCUUGUUUCUAAUGUAAAUAGUGUCCAUUAGUAAAAGUGAAAUUCAGUCUUAAGUAGGGUGAAUUGGAUCACCAUUUACACAAGAGAUGCAACAGAGGAUUGAGCAUCA
B15: chr19:12875797:12875908:-|3pUTR|ENSG00000105612|unk|total|mutant (ssRNA)
RNA: GGGAGUUCUACAGUCCGACGAUCUUCGAGACCAGCCUGGGCUACACCGUGAGACCACAUCUCUACCCGAACUUAAAAAAAGUCCGCCAGGCACGGUGAUAAAUGCCUGCCGUCCCAGCCACUGAAGCCAGAGGAUCGAUUGAACAACAGAGGAUUGAGCAUCA
B16: chr12:1780521:1780622:+|CDS|ENSG00000006831|msi1|FALSE|bound_elsewhere (ssRNA)
RNA: GGGAGUUCUACAGUCCGACGAUCCCCAAAUAUCUCCUUUGUGGCCCCUCUGCAAGAGAAGGUGGUCUUUGGAUUAUUUUUCUUAGGAGCCAUUCUCUGCCUUUCUUUUUCAUGGCUCUUCCACACAGUCUACUGCCACUCAGACAACAGAGGAUUGAGCAUCA
B17: chr15:93027272:93027374:+|3pUTR|ENSG00000173575|unk|FALSE|unique (ssRNA)
RNA: GGGAGUUCUACAGUCCGACGAUCCCAGGAAUCUGUGAGGAUGGUAUUCCCUGGAGUCUGGCUUUGAAAGAUUUCAUUGUUGGUAGAAAUAACAGGUUGAGAAAGAGGGAGUUAGCAUCACCUAAAACCUGCACGUGAACAAGGCAACAGAGGAUUGAGCAUCA
B18: chr2:74529670:74529771:-|5pUTR|ENSG00000115307|unk|total|mutant (ssRNA)
RNA: GGGAGUUCUACAGUCCGACGAUCUCUCCGCCGGACGCGAGUUGUGAGACGGCCCAAGGGGCCGCGGGGUAUGCUGGGACCGCCCGCCCUUCCGGCGCGCCUCAGGACUUCGGGUCCCCUCACCCCGGGCGGAUGCCCAAAGACCAACAGAGGAUUGAGCAUCA
B19: chr1:90030187:90030288:+|3pUTR|ENSG00000162664|unk|total|mutant (ssRNA)
RNA: GGGAGUUCUACAGUCCGACGAUCACCCAGUUCAAGUCAUGAUAAUUUCUUGUUAACUAAUCUUGAUUCCACCCUUACCAUGACCGAUUCAGUUUUCUACACAAGUAUAAGCUUUUAAAAAUGUAAUUCAGAUGAUGUUAAUCUCAACAGAGGAUUGAGCAUCA
B20: chr20:3933335:3933436:-|3pUTR|ENSG00000101236|msi1|FALSE|bound_elsewhere (ssRNA)
RNA: GGGAGUUCUACAGUCCGACGAUCUUACAACACCUGCUAUCAAAUCAUCUAAGCUGAAAACAUGAGAUGCGCUUGGAAAGGCCUAGUCAGAAGCCAUUUCCUCUUAUCAUUUCCCUCUCCUAUGCACCAGUAAGGCCCGUCCAGCAACAGAGGAUUGAGCAUCA
B21: chr7:99177919:99178066:-|CDS|ENSG00000185467|control|control|control (ssRNA)
RNA: GGGAGUUCUACAGUCCGACGAUCGAGAAACGGUCUGAGAAGGAAAACCUGUGUCUUCUGAUAGAAGAACUUGGUGGGAUCGAUAGAAUUGAGGCUUUACAGCUGCAUGAGAACCGUCAAAUUGGCCAGUCGGCUUUGAACAUCCAACAGAGGAUUGAGCAUCA
B22: chr20:31606305:31606406:+|3pUTR|ENSG00000125968|msi1|total|mutant (ssRNA)
RNA: GGGAGUUCUACAGUCCGACGAUCUGAGGCACUGGCGAGGAGAGGGCGCUCCUCUCUGCACACCUACCCGUCACCAGAGACUUCCGGGGGUGGGAUUCCACUCGUGUGUUUCUAUUUUUUGAAAAGCAGACAUUUUAAAAAAUGCAACAGAGGAUUGAGCAUCA

The other results are listed elsewhere or left out.

The target in this test is MSI1 full-length (mouse, UniProt Q61474 1-362). The experiment in a line: nsRBNS (natural sequence RNA bind-n-seq); RBNS binding buffer (assumed for nsRBNS): 25 mM Tris pH 7.5, 150 mM KCl, 3 mM MgCl2, 0.01% Triton X-100, 500 ug/ml BSA, 20 U/ml SUPERase-In, 4 C; UNK is unkempt and MSI1 is Musashi-1; names of the RNAs are library labels; protein concentration not given here; high values mean tight binding.
Sequence of UniProt Q61474 (Q61474 whole entry): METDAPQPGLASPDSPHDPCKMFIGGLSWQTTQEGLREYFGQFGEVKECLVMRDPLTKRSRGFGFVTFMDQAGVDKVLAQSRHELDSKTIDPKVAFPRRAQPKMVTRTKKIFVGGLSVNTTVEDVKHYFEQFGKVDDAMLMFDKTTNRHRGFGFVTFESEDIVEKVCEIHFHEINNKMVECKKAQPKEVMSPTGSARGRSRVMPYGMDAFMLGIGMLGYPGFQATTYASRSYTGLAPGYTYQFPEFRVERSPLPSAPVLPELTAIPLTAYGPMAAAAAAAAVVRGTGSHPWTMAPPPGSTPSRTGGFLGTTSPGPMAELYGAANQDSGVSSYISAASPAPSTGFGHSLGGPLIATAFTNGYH
For B1, the binding signal was 0.513 enrichment R.

In turn, B2 yielded a binding signal of 0.431 enrichment R. Then B3, with 0.518 enrichment R; and B4, with 1.12 enrichment R; and B5, with 0.432 enrichment R.

In the case of B6, the binding signal is 0.738 enrichment R.

Molecule B7 displayed a binding signal of 0.774 enrichment R. The result for B8 reads 1.28 enrichment R; that for B9, 0.853 enrichment R.

As to B10, the binding signal was found to be 0.947 enrichment R. The molecule B11 yielded a binding signal of 5 enrichment R. The result for B12 reads 0.453 enrichment R; that for B13, 0.411 enrichment R; that for B14, 2.13 enrichment R. The result for B15 reads 0.397 enrichment R. For the molecule B16, the binding signal was 0.609 enrichment R.

Molecule B17 had a binding signal of 0.81 enrichment R. For B18, the binding signal turned out to be 0.325 enrichment R.

For the molecule B19, the binding signal stood at 1.39 enrichment R. Then B20, with 0.615 enrichment R; and B21, with 0.447 enrichment R.

With B22, the binding signal amounted to 0.407 enrichment R.
